Experimental data as given in patent US20220389066A1, “POLYPEPTIDES” (Affibody AB, priority 2019, published 2022).

What was measured:
b-GST-boxA(red) = target: T1, b-GST-boxA(red) (Homo sapiens, UniProt P09429); assay: ELISA screening of Z variants against reduced A-box; format: binding; conditions: target concentration 2 nM; periplasmic Z-ABD fusion; at least 3× the blank control
T1 construct: purchased HMGBiotech Srl, Milano, Italy
Description: (§1) ELISA screening of Z variants against reduced A-box and B-box: The binding of Z variants to HMGB1 was analyzed in ELISA assays. Half-area 96-well ELISA plates (Greiner, cat. no. 675061) were coated at 4° C. overnight with 2 μg/ml of an anti-ABD goat antibody (produced in-house) diluted in coating buffer (50 mM sodium carbonate, pH 9.6; Sigma, cat. no. C3041). The antibody solution was poured off and the wells were washed in water and blocked with 100 μl of PBSC (PBS supplemented with 0.5% casein; Sigma, cat. no. C8654) for 1-3 h at RT. The blocking solution was discarded and 50 μl periplasmic solutions, diluted 1:16 with PBST 0.05%, were added to the wells and incubated for 1.5 to 2.5 h at RT under slow agitation. As a negative control, periplasmic ABD was added. The supernatants were poured off and the wells were washed 4 times with PBST 0.05%. Then, 50 μl of either b-GST-boxA(red), at a concentration of 2 nM, or b-GST-boxB(red), at a concentration of 100 nM, in PBSC+1-2 mM DTT, was added to each well of A-box binding Z-variants or B-box binding Z-variant, respectively. The plates were incubated for 1 h at RT followed by washes as described above. Streptavidin conjugated HRP (Thermo Scientific, cat. no. N100) diluted 1:30,000 in PBSC+1-2 mM DTT, was added to the wells and the plates were incubated for approximately 45 min. After washing as described above, 50 μl ImmunoPure TMB substrate (Thermo Scientific, cat. no. 34021) was added to the wells and the plates were treated according to the manufacturer's recommendations. The absorbance at 450 nm was measured using a multi-well plate reader, Victor3 (Perkin Elmer).

b-boxA(disulfide) = target: T2, b-boxA(disulfide) (Homo sapiens, UniProt P09429); assay: ELISA screening against the disulfide form of A-box; format: binding; conditions: target concentration 1000 nM; at least 3× the blank control
T2 construct: purchased HMGBiotech Srl, Milano, Italy
T2 sequence (P09429 1-89): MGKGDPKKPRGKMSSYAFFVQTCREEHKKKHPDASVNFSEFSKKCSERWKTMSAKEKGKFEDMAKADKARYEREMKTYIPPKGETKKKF
Description: as §1
(§2) ELISA screening of Z variants against the disulfide form of A-box and against HMGB1: To find out if selected A-box binding Z variants could also bind the disulfide form of HMGB1, A-box binding variants were screened in the same setup as described above against b-boxA(disulfide) at a concentration of 1000 nM and b-HMGB1(disulfide) at a concentration of 100 nM in PBSC.).

b-HMGB1(disulfide) = target: T3, b-HMGB1(disulfide) (Rattus norvegicus, UniProt P63159); assay: ELISA screening against HMGB1(disulfide); format: binding; conditions: target concentration 100 nM; at least 3× the blank control
T3 construct: purchased HMGBiotech Srl, Milano, Italy
T3 sequence (P63159 1-215): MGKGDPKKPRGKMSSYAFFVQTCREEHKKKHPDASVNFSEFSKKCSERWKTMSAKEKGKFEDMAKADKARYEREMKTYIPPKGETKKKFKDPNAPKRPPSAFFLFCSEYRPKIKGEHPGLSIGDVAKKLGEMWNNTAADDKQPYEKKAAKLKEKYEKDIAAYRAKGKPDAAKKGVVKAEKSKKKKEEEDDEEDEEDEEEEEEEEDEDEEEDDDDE
Description: as §1, §2

[1] = Circular dichroism (CD) spectroscopy, variable temperature measurement; format: physicochemical; conditions: His6-tagged Z variants; CD at 221 nm, 20 to 80-90° C.
Description: Circular dichroism (CD) spectroscopy analysis: The His6-Z variants produced in Example 2 were diluted to 25 μM in PBS or H2O. A CD spectrum at 250-195 nm was obtained at 20° C. In addition, a variable temperature measurement (VTM) was performed to determine the melting temperature (Tm). In the VTM, absorbance was measured at 221 nm while the temperature was raised from 20° C. to 80° C. (in some cases to 90° C.), with a temperature slope of 5° C./min. A new CD spectrum was obtained at 20° C. after the heating procedure, in order to study the refolding ability of the Z variants. The CD measurements were performed on a Jasco J-810 spectropolarimeter (Jasco Scandinavia AB) using a cell with an optical path length of 1 mm.
Circular dichroism (CD) spectroscopy analysis: The measurements were performed essentially as described in Example 3.

b-GST-boxB(red) = target: T4, b-GST-boxB(red) (Homo sapiens, UniProt P09429); assay: ELISA screening of Z variants against reduced B-box; format: binding; conditions: target concentration 100 nM; periplasmic Z-ABD fusion; at least 2.3× the blank control
T4 construct: purchased HMGBiotech Srl, Milano, Italy
Description: as §1, with “Streptavidin conjugated HRP (Thermo Scientific, cat. no. N100) diluted 1:30,000 in PBSC+1-2 mM DTT, was added to the wells and the plates were incubated for approximately 45 min. After washing as described above, 50 μl ImmunoPure TMB substrate (Thermo Scientific, cat. no. 34021) was added to the wells and the plates were treated according to the manufacturer's recommendations.” left out

HMGB1(red) = target: T5, HMGB1(red) (Rattus norvegicus, UniProt P63159); assay: In vitro cell migration assay, mouse 3T3 fibroblasts in modified Boyden chambers; format: cell-based; conditions: 1 nM or 0.2 nM HMGB1(red), 3 h
T5 construct: purchased HMGBiotech Srl, Milano, Italy
T5 sequence (P63159 2-215): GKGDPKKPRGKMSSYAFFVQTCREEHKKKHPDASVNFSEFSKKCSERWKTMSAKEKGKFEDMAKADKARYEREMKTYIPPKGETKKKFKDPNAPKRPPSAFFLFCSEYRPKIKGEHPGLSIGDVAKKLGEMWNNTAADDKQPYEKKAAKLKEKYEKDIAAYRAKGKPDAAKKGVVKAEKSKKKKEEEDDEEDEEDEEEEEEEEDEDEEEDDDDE
Description: In vitro cell migration assay: Mouse 3T3 fibroblast cells were used to assess the ability of His6-tagged Z variants to inhibit migration of cells in response to HMGB1 in modified Boyden Chambers (Neuroprobe Inc.). Mouse 3T3 fibroblasts were grown in Dulbecco's Modified Eagle Medium (DMEM, Gibco) with 10% fetal bovine serum (FBS, Gibco), 1% L-glutamine and antibiotics (Lonza). Prior to use, cells were centrifuged and the pellet was resuspended in DMEM (without FBS) without further washing. Polycarbonate filters (Neuroprobe Inc.; #PFA8) with 8 μm pores were coated with human fibronectin (Roche). Serum-free DMEM (negative control), DMEM containing 1 nM HMGB1(red) (positive control), and DMEM containing 1 nM HMGB1(red) plus Z variants ZH 01 (SEQ ID NO:1) and ZH 31 (SEQ ID NO:31) at a concentration of 10 or 100 ng/ml, were placed in the lower wells. A control polypeptide, Z04726 (SEQ ID NO:54), binding an irrelevant target, was used as negative control. boxA(red) (SEQ ID NO:51), a known competitor of HMGB1, was used at 1 nM concentration as positive control for inhibition of HMGB1 induced cell migration. Fibronectin-coated filters were placed so as to separate the lower and the upper wells, and 50000 3T3 cells were placed in the upper wells. The chambers were kept at 37° C. in a 5% CO2, humidified incubator for 3 h. The cells were then fixed with 100% ethanol (Sigma) and stained 20 minutes with Giemsa Stain (Sigma). The cells on the lower side of the filter were counted with a Leica DM LS2 microscope at 400× magnification.
ZH 30 was tested in a migration assay by performing an extended titration to allow IC50 calculations with 0.2 nM HMGB1(red) and lower concentrations of Z variants (0.1 ng/ml, 0.3 ng/ml, 1 ng/ml). A control polypeptide, ZZA4014 (SEQ ID NO:49), binding an irrelevant target and cloned and produced as described in Example 4, was used as negative control in this set up.
In vitro cell migration assay: The migration assay was performed essentially as described for monomeric Z variants in Example 3. One monomeric Z-ABD polypeptide, ZA3812 (SEQ ID NO:35); five heterodimeric polypeptides, ZZA4010 (SEQ ID NO:38), ZZA4011 (SEQ ID NO:39), ZZA4012 (SEQ ID NO:40), ZZA4013 (SEQ ID NO:41) and ZAZ4015 (SEQ ID NO:42); and three homodimeric polypeptides, ZZA4053 (SEQ ID NO:43), ZZA4054 (SEQ ID NO:44) and AZ4057 (SEQ ID NO:45), were tested in a migration assay by performing an extended titration, to allow IC50 calculations with 0.2 nM HMGB1 and reducing doses of polypeptides (0.1 nM, 0.3 nM, 1 nM). ZZA4014 (SEQ ID NO:49), binding an irrelevant target, was included as a negative control.

T1 sequence (P09429 with tags, fused parts or gaps): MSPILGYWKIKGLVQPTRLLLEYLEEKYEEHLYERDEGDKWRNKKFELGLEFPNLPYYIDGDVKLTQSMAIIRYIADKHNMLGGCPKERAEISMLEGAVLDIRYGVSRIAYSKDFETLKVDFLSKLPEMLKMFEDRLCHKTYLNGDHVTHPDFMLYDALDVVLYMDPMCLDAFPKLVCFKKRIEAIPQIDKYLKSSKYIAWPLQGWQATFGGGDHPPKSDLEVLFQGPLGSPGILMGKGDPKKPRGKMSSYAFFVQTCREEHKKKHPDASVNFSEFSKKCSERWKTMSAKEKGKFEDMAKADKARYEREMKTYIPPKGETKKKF
T4 sequence (P09429 with tags, fused parts or gaps): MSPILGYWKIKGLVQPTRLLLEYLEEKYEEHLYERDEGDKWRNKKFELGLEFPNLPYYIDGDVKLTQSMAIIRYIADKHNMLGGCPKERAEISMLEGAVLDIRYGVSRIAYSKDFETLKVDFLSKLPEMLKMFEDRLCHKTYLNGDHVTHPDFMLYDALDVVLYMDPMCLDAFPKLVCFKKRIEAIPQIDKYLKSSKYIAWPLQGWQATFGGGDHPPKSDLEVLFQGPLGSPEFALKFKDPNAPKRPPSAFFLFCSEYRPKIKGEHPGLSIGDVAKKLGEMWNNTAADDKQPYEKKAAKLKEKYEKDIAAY

Substance | average ELISA response against b-GST-boxA(red) (b-GST-boxA(red)) [AU] | ELISA response against b-boxA(disulfide) (b-boxA(disulfide)) [AU] | ELISA response against b-HMGB1(disulfide) (b-HMGB1(disulfide)) [AU] | Tm (° C.) [1] [°C] | ELISA response against b-GST-boxB(red) (b-GST-boxB(red)) [AU] | inhibition of HMGB1 induced cell migration (HMGB1(red))
ZH02: HMGB1 A-box binding Z variant, 58 amino acid residues, from primary phage display selection (VDAKYAKEAEDAMHEILWLPNLTWEQQKAFIYKLEDDPSQSSELLSEAKKLNDSQAPK; Engineered HMGB1 binding polypeptide) | 0.2 | 2.02 | 1.17 | 58 | – | –
ZH03: HMGB1 A-box binding Z variant, 58 amino acid residues, from primary phage display selection (VDAKYAKEAWQAMEEILWLPNLTNTQQLAFIYKLEDDPSQSSELLSEAKKLNDSQAPK; Engineered HMGB1 binding polypeptide) | 0.6 | 1.17 | 2.96 | 54 | – | –
ZH30: HMGB1 B-box binding Z variant, 58 amino acid residues (VDAKYAKEAWSAEQEIWDLPNLTLQQFQAFIMKLLDDPSQSSELLSEAKKLNDSQAPK; Engineered HMGB1 binding polypeptide) | – | – | – | 53 | 0.14 | inhibit HMGB1 induced cell migration
ZH31: HMGB1 B-box binding Z variant, 58 amino acid residues (VDAKYAKEAWLAEQEIWQLPNLTEAQFQAFILKLIDDPSQSSELLSEAKKLNDSQAPK; Engineered HMGB1 binding polypeptide) | – | – | – | 57 | 0.47 | inhibit HMGB1 induced cell migration
